These results are taken from US6641809.

For the assay, the target named is T1, B7 antigen (human, UniProt P33681 35-288).
T1 construct: whole, on cells; The same entry is used for B7 on transfected COS/CHO cells and for native B7 on B cell lines; the assay field says which; also called B7/BB-1 antigen; ligand for CD28
T1 sequence (looked up): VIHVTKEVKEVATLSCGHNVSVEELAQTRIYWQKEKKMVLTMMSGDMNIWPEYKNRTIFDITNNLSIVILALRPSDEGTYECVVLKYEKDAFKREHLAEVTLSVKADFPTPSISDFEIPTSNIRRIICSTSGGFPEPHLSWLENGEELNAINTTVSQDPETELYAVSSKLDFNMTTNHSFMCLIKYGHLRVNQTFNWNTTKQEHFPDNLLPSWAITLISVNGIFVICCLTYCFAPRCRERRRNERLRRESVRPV
Kind of assay: inhibition of adhesion of PM lymphoblastoid cells to CD28+ CHO monolayers.

As a reminder, the IC50 is the concentration needed to halve the response being measured. Lower therefore signals greater potency in that assay.

B1: CD28Ig fusion protein (Fc fusion)
chain: not shown
notes: Made in COS cells and purified on protein A; DNA deposited as ATCC 68628; also called immobilized CD28Ig
With B1, the IC50 was greater than 950 nM.
